Here are results for 80 compounds from ChEMBL document CHEMBL1201862, “PubChem BioAssay data set” (2004).

Structures are written as SMILES.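 Following 48 hours of exposure in 96-well plates, responses at five concentrations were used to interpolate endpoints linearly. Here, GI50 denotes the concentration required for 50% inhibition of growth.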 Activity calls are given as the source filed them. Cut-off read from the data, not from the text of the source: active = GI50 up to about 1.1 µM and inactive = higher.

In the assay the test system is NCI-H322M. In words: growth of human tumour cells (NCI), 48 h.
On to `Fc1ccc(C(OCCN2CC3CC2CN3CCCc2ccccc2)c2ccc(F)cc2)cc1` (stereo not given), for which the GI50 was inactive: 12.9 µM.

For the compound `S=C(Nc1ccccn1)Nc1ccccc1Cl`, the GI50 was inactive: > 71 µM.

Turning to `CN(C)C1C(=O)C(C(N)=O)=C(O)C2(O)C(O)=C3C(=O)c4c(O)cccc4C(C)(O)C3CC12` (stereo not given), the GI50 is inactive: > 100 µM.

Take `O=C1NC2(C=Cc3c(ccc4ccccc34)O2)Oc2ccccc21` (stereo not given): the GI50 was inactive: 27.3 µM.

Take `CN(C(=O)c1ccncc1)c1ccccc1`: the GI50 was inactive: > 100 µM.

Take `O=C1CCCC1C(=O)Nc1ccc2ccccc2c1` (stereo not given): the GI50 was inactive: > 100 µM.

Take `COc1ccc2nc(NCN3C(=O)c4ccccc4C3=O)sc2c1`: the GI50 is inactive: > 100 µM.

As for `O=C1CC(c2ccccc2)=Nc2ccccc2N1`, the GI50 is inactive: > 100 µM.

For the compound `CCOC(=O)NC(NCC(O)c1ccccc1)(C(F)(F)F)C(F)(F)F` (stereo not given), the GI50 was inactive: > 100 µM.

Regarding `COC(=O)C(=O)C(C(=O)C(=O)Nc1cc([N+](=O)[O-])ccc1C#N)c1nc2ccccc2nc1O` (stereo not given), the GI50 is inactive: > 100 µM.

For `Cc1nc2c(O)c3c(c(O)c2nc1C)C1C=CC3CC1`, the GI50 was inactive: 57.8 µM.

In the case of `Cc1cc(Cl)ccc1OCC(=O)Nc1nc(N)nc(N)n1`, the GI50 was inactive: > 100 µM.

For the compound `O=S1(=O)c2ccccc2NC(=S)CC1c1ccccc1` (stereo not given), the GI50 is inactive: > 100 µM.

Take `Clc1cc(Cl)c2cc3cccc[n+]3cc2c1Cl`: the GI50 is inactive: 20.3 µM.

For `CN(C)C(=S)N1C(=S)N(c2ccccc2)C(=N/c2ccccc2)/C1=N\c1ccccc1`, the GI50 is inactive: 40 µM.

On to `CC(C)(C)/C(O)=C\c1nc2cc(C(F)(F)F)ccc2[nH]c1=O`, for which the GI50 was inactive: > 100 µM.

For `CC(=O)OCC1OC(N2C(c3ccccc3)=CC(c3cccs3)C(C#N)=C2S)C(OC(C)=O)C(OC(C)=O)C1OC(C)=O` (stereo not given), the GI50 was inactive: > 100 µM.

Turning to `C[C@]12Cc3cn[nH]c3C(=O)C1CC[C@@H]1C2CC[C@@]2(C)C1CC[C@@H]2O` (stereo not given in full), the GI50 was inactive: > 100 µM.

On to `CCO/C=N/NC(=O)CSc1nc2ccc(I)cc2c(=O)n1Cc1ccccc1`, for which the GI50 was inactive: > 100 µM.

As to `O=C(NN1C(=O)C(Cl)C1c1cccc([N+](=O)[O-])c1)c1ccccc1O` (stereo not given), the GI50 is inactive: > 100 µM.

As for `Cc1cc(-c2ccc(Cl)cc2)c(C#N)c(=S)n1C1OC(CO)C(O)C(O)C1O` (stereo not given), the GI50 was inactive: > 100 µM.

As to `COc1cc(S(=O)(=O)Nc2nc(-c3ccc(/N=C/c4cccs4)cc3)cs2)ccc1Cl`, the GI50 is inactive: > 100 µM.

`Cc1ccc2c(c1)NC(c1ccc(C(=O)O)cc1)c1cccn1-2` (stereo not given): the GI50 is inactive: 23.6 µM.

For `Cc1ccc(C(=O)Oc2ccc(/C=C3\CCC/C(=C\c4ccc(OC(=O)c5ccc(C)cc5)cc4)C3=O)cc2)cc1`, the GI50 is inactive: > 100 µM.

`CCOC(=O)c1cccc(NC(=O)CCl)c1`: the GI50 is inactive: 2.21 µM.

Take `Cc1cc2c(cc1C)[n+]([O-])c(C(=O)C/C(=N/OCCCc1ccccc1)C(=O)Nc1cc(Cl)ccc1Cl)c(C)[n+]2[O-]`: the GI50 was inactive: > 100 µM.

Take `CCOC(=O)c1csc(NC(=O)CCN2CCOCC2)n1`: the GI50 was inactive: > 100 µM.

On to `COC(=O)NNC(=O)OC.COC(=O)Nc1ccccc1NC(=O)OC.COC(=O)Oc1nn(C(=O)OC)c(=O)c2ccccc12`, for which the GI50 was inactive: > 100 µM.

For `Cc1ccc(S(=O)(=O)C2CC2(Cl)Cl)cc1` (stereo not given), the GI50 is inactive: > 100 µM.

Turning to `Cc1cc2c(=O)cc(-c3ccncc3)oc2c(C(=O)O)c1C`, the GI50 is inactive: > 100 µM.

Take `O=C1/C(=C\c2ccc(F)cc2)CCOc2c1ccc1ccccc21`: the GI50 is inactive: 22.5 µM.

Turning to `CCCNC(=S)N/N=C(\C)c1ccc(S(=O)(=O)N(C)c2ccccc2)cc1`, the GI50 is inactive: > 100 µM.

`CCOc1ccnc2c(OC)c(C)c3nc4ccccc4nc3c12`: the GI50 was inactive: > 100 µM.

As for `C[C@]12CC[C@H]3[C@@H](CCC4=CC(=O)CC[C@@]43C)[C@]1(O)CC[C@]2(O)C(=O)CO`, the GI50 was inactive: > 100 µM.

Turning to `CN1C2CC(=O)CC1[C@@H]1OC(c3ccccc3)O[C@H]21` (stereo not given in full), the GI50 is inactive: > 100 µM.

With `O=c1c(-c2ccccc2)c(SCCN2CCCC2)n(-c2ccccc2)c(=S)n1-c1ccccc1`, the GI50 is inactive: > 100 µM.

On to `CC1(C)CC(C)(C)CC(O)(C2(O)CC(C)(C)CC(C)(C)C2)C1`, for which the GI50 is inactive: > 100 µM.

For the compound `C[n+]1c2ccccc2c(NCC(=O)O)c2ccccc21`, the GI50 is inactive: > 100 µM.

`O=C(N/N=C/c1cccc(O)c1O)N/N=C/c1cccc(O)c1O`: the GI50 is inactive: 19.3 µM.

Consider `Cc1ccc(C2SCC(=O)N2c2ccc(-n3c(-c4ccccc4)nc4ccccc4c3=O)cc2)cc1` (stereo not given), for which the GI50 is inactive: 27.2 µM.

In the case of `N#CC1(N2CCCC2)CCC2(CC1)OCCO2`, the GI50 was inactive: > 100 µM.

Take `Cn1c(N/N=C/c2ccccc2)nc(-c2ccc([N+](=O)[O-])cc2)c(C#N)c1=O`: the GI50 is inactive: 28.1 µM.

For `CC(C)(C)c1cc2c(OC/C=C/c3ccccc3)c(c1)Cc1cc(C(C#N)(OC/C=C/c3ccccc3)OC/C=C/c3ccccc3)cc(c1OC/C=C\c1ccccc1)Cc1cc(C(C)(C)C)cc(c1OC/C=C/c1ccccc1)Cc1cc(C(C#N)(OC/C=C\c3ccccc3)OC/C=C/c3ccccc3)cc(c1OC/C=C\c1ccccc1)C2` (stereo not given), the GI50 is inactive: > 100 µM.

With `CC(=O)OC1OC(c2ccoc2)C[C@@]12C1CCC3O[C@]3(C)[C@]1(C)[C@H](OC(C)=O)[C@H](OC(C)=O)[C@H]2C` (stereo not given in full), the GI50 was inactive: > 37.5 µM.

For the compound `Nc1cccc(OCC2CCCN3CCCCC23)c1` (stereo not given), the GI50 is inactive: 16.1 µM.

`Cc1c(C)c2c(c(N)c1C#N)C(=O)N(N)C2=O`: the GI50 is inactive: > 100 µM.

For `C=CCC1(C#N)C(=S)NC2=C(C(=O)CC(C)(C)C2)C1c1ccccc1` (stereo not given), the GI50 was inactive: 21.1 µM.

Regarding `COC(=O)c1ccccc1/C=C1\Cc2cc(C)cc(C)c2C1=O`, the GI50 was inactive: > 100 µM.

For `CN(C)/C=N/S(=O)(=O)c1nn2c(C=O)c(-c3ccc(-c4ccc([N+](=O)[O-])cc4)o3)nc2s1`, the GI50 is inactive: 11.7 µM.

For the compound `CCCNC(=O)NNC(=O)c1c[nH]c2nc(C)ccc2c1=O`, the GI50 is inactive: > 100 µM.

As for `NS(=O)(=O)c1ccc(NC(=O)c2cc([N+](=O)[O-])cc([N+](=O)[O-])c2)cc1`, the GI50 was inactive: 75.3 µM.

As for `CC(O)CN1c2ccccc2Sc2ccccc21` (stereo not given), the GI50 was inactive: > 100 µM.

Consider `CCCC(S(=O)(=O)c1ccccc1)S(=O)(=O)c1ccccc1`, for which the GI50 was inactive: > 100 µM.

For the compound `Cc1cccc(N/C(=C(/C(Cl)=C(Cl)Cl)[N+](=O)[O-])n2nnc3ccccc32)c1`, the GI50 was inactive: 24.2 µM.

Consider `COc1ccc2c(c1)[n+]([O-])c(C(=O)C/C(=N/NC(=O)C[N+](C)(C)C)C(=O)Nc1cccc(C)c1C)c(C)[n+]2[O-]`, for which the GI50 was inactive: > 100 µM.

As for `O=C1CNNC(CSc2nc3ccc(I)cc3c(=O)n2Cc2ccccc2)=N1`, the GI50 is inactive: 38.8 µM.

In the case of `Nc1cccc(/C=C/C(=O)N2CCN(CCOC(c3ccccc3)c3ccccc3)CC2)c1`, the GI50 is inactive: 16.6 µM.

Regarding `Oc1c(CN2CCCC2)ccc2cccnc12`, the GI50 was inactive: 24.2 µM.

Turning to `CN(C)c1ccc(C=C2N=C(c3ccccc3)N(c3cc(C(=O)c4ccccc4)ccc3N3C(=O)/C(=C/c4ccc(N(C)C)cc4)N=C3c3ccccc3)C2=O)cc1`, the GI50 is inactive: > 100 µM.

As to `O=C1CSC2=NC3=C(COC/C3=C\c3ccc(F)cc3)C(c3ccc(F)cc3)N12` (stereo not given), the GI50 is inactive: 47.5 µM.

With `CC(C)(C)[Si](C)(C)OCC1OC(n2ccc(=O)[nH]c2=O)C(O[Si](C)(C)C(C)(C)C)/C1=C/C#N` (stereo not given), the GI50 was inactive: 24.5 µM.

With `NC1=C(c2nc(-c3ccccc3)cs2)C(c2ccco2)c2c(c3ccccc3oc2=O)O1` (stereo not given), the GI50 is inactive: > 100 µM.

On to `Nc1nnnn1NC(=O)NCCCl`, for which the GI50 was inactive: > 10 µM.

With `CO[C@H]1C[C@H](O[C@H]2CC[C@@]3(C)[C@H](CC[C@@H]4[C@@H]3CC[C@]3(C)[C@@H](C5=CC(=O)OC5)CC[C@]43O)C2)O[C@H](C)[C@H]1O`, the GI50 was active: < 0.01 µM.

As for `CCOC(=O)CN(c1ccccc1)c1nc(=[N+](C)C)ss1`, the GI50 was inactive: 44.9 µM.

Consider `CN(C)CCCNC(=O)c1c(O)c2ccccc2[nH]c1=O`, for which the GI50 was inactive: > 100 µM.

For `Cc1ccc2[nH]c(=N/c3ccccc3C)/c(=N\c3ccccc3C)[nH]c2c1`, the GI50 is inactive: 38.5 µM.

As for `Cc1[nH]c2ncn(/N=C/c3ccccc3)c(=N)c2c1Cc1ccccc1`, the GI50 is inactive: > 100 µM.

Turning to `c1ccc(Cc2cccc3cc(-c4ccc(-c5ccccc5)cc4)[nH]c23)cc1`, the GI50 was inactive: > 100 µM.

Consider `O=CN1CCN(C(=O)c2ccc(Cl)c(Cl)c2)C1=S`, for which the GI50 is inactive: 16.8 µM.

On to `Cc1nc2ccccc2n1COC(Cn1ccnc1)c1ccc(Cl)cc1Cl` (stereo not given), for which the GI50 was inactive: > 100 µM.

Take `CCOC(=O)C(Cc1c(C=O)[nH]c2ccccc12)(NC(=O)c1ccccc1)C(=O)OCC`: the GI50 was inactive: 14.3 µM.

In the case of `COc1ccc(CCN2C(=O)C(=O)C(C(=O)c3ccccc3)C2c2ccccc2)cc1OC` (stereo not given), the GI50 was inactive: > 100 µM.

As to `CC1OC1P(=O)(O)O` (stereo not given), the GI50 was inactive: > 100 µM.

Regarding `ClCCNCCNCCCl.ClCCNCCNCCCl.[O-][Cl+3]([O-])([O-])O`, the GI50 is inactive: 79.6 µM.

As to `C=C[C@]1(O)CCC[C@]2(C)C(=O)CCC12C` (stereo not given in full), the GI50 is inactive: 86.7 µM.

Take `COc1c(Cl)c2c(c(OC)c1OC)-c1ccc(OC)c(=O)c(Cl)c1C(NC(C)=O)CC2` (stereo not given): the GI50 is active: 0.316 µM.

As for `COc1cc(CN[C@H]2CCc3cc(OC)c(OC)c(OC)c3-c3ccc(SC)c(=O)cc32)cc(OC)c1`, the GI50 was active: 0.039 µM.

As for `CC(=O)c1nc2ccccc2n1CC(=O)c1ccc(Cl)cc1`, the GI50 was inactive: 11.2 µM.

With `CCCCC/C=C\C=C1\C(=O)C=C[C@@H]1C/C=C\CCCC(=O)O`, the GI50 was inactive: 6.18 µM.
